# Assay results from article PMC4336329 (PLoS ONE, 2015).
# The whole screen tested about 310,000 compounds, of which about 2,200 (0.71%) showed an effect of 50% or more. Effects have a minus sign here. The list shows a part of the results.
# Biological target: human ether-à-go-go-related gene (hERG) potassium channel (human, UniProt Q12809)
# Assay: primary screen, population patch clamp on CHO cells stably expressing hERG
# Chain of human ether-à-go-go-related gene (hERG) potassium channel (Q12809 whole entry, looked up): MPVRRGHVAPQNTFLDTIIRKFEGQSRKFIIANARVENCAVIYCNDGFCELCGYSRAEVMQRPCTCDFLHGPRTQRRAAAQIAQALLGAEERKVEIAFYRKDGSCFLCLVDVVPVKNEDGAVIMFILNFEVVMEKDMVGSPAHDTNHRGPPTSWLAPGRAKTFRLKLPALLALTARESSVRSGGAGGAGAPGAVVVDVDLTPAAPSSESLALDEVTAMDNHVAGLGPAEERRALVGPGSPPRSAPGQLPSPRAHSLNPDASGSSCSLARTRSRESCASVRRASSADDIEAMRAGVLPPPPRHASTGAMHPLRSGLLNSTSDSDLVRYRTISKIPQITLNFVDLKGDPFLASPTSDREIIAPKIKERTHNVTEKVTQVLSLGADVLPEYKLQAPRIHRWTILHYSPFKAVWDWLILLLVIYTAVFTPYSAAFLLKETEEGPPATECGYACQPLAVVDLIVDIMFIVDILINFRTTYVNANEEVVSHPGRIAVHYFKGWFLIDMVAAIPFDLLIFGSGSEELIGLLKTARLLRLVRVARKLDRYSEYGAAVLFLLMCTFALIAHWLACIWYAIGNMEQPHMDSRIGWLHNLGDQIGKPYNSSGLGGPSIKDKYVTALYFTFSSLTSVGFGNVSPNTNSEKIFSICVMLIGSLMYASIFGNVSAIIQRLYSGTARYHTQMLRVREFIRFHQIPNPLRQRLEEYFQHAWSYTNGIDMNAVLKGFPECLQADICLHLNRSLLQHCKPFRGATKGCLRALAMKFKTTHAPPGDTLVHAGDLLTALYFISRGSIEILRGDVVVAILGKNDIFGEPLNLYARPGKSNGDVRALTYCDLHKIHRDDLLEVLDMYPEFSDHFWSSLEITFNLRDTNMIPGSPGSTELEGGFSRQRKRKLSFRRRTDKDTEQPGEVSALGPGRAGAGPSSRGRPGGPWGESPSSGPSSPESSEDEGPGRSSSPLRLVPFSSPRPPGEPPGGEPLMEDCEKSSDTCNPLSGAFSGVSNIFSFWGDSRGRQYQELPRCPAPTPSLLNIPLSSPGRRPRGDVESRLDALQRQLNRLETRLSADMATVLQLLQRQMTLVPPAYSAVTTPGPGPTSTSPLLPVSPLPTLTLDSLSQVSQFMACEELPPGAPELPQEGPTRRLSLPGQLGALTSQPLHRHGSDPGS
row,Structure (SMILES),"hERG current change (%, negative = inhibition) at 1uM"
1,COc1cnc(-c2ccccn2)nc1N(C)C,3.6%
2,CC(C)Oc1ccc(CCc2nnc(SC(C)C(=O)O)n2-c2ccccc2)cc1 (stereo not shown),4.63%
3,CCN(CC(=O)NCc1ccc(F)cc1)C(=O)COc1ccc(C)c(C)c1,-38.1%
4,CN(Cc1ccccc1)C(=O)c1ncn(C)c1C(=O)N(C)Cc1ccccc1,9.6%
5,COC(=O)C1=C(C)Nc2c(c(=O)n(C)c(=O)n2C)C1c1cccnc1 (stereo not shown),3%
6,CCCNC(=O)c1ccccc1NC(=O)c1ccccc1N(C)S(=O)(=O)c1ccccc1,9.2%
7,CCOCC(=O)Nc1ccc(C)c(Cl)c1,7.48%
8,c1cc(C(c2nnnn2C2CCCC2)N2CCOCC2)ccn1 (stereo not shown),0.724%
9,COC(=O)c1ccc(N=NN2CCCCCC2)cc1,11.2%
10,Cc1ccc(Nc2nc(N)nc(CN3CCCCCC3)n2)cc1,-45.2%
11,CC(C)(C)c1ccc(NC(=O)Nc2ccc3ccccc3n2)cc1,12.4%
12,CCC(C)NC(=S)N(Cc1cc2cc(C)ccc2n2nnnc12)CC(C)(C)NC(C)C (stereo not shown),14%
13,COc1ccccc1NC(=S)N(CCCN(C)C)Cc1cc2cc3c(cc2[nH]c1=O)OCO3,-3.81%
14,Oc1ccc(C=Nc2ccc(N3CCOCC3)cc2)c(O)c1,11.8%
15,COc1ccc(-c2csc3nc(-c4cccnc4)nc(Cl)c23)cc1OC,9.63%
16,CN1/C(=c2/s/c(=C3/C(=O)N(c4ccccc4)NC3=Nc3ccccc3)n(C)c2=O)C(C)(C)c2ccccc21,13.9%
17,O=C(NCCc1ccccc1)c1ccc2c(c1)OCCO2,16.9%
18,O=C1CC(C(F)(F)C(F)(F)C(F)(F)C(F)(F)F)=Nc2ccccc2N1,10.4%
19,COc1ccc(OC(C)C(=O)NC2CCCCCCC2)cc1 (stereo not shown),14.6%
20,C=CCn1c(SCC(=O)c2ccc(O)c(O)c2)nnc1-c1ccc(OC)cc1,12.7%
21,COc1cc(OC)nc(Oc2cccc(C(F)(F)F)c2)n1,7.75%
22,NC(=O)CSc1nnc(-c2cccnc2)n1CCc1ccccc1,9.9%
23,COC(=O)c1ccc(NS(=O)(=O)c2ccccc2)o1,17.9%

row,Structure (SMILES),"hERG current change (%, negative = inhibition) at 1uM"
1,Cc1cc(OC(C)C(=O)NCC2CCC(C(=O)O)CC2)c2c(C)c(C)c(=O)oc2c1 (stereo not shown),6.75%
2,COc1ccc(S(=O)(=O)N2CC(O)C[C@H]2C(=O)OCC(=O)N2CCCCCC2)cc1 (stereo partly shown),23.1%
3,Cc1cc(Nc2c(C)cccc2C)n2nc(C)nc2n1,11.2%
4,Cc1[nH]c2ccccc2c1N=Nc1ccccc1F,7.58%
5,N#Cc1nc(Cc2ccccc2)oc1NCCN1CCOCC1,-0.875%
6,Cc1ccc(C2CC(=O)Nc3cc4c(cc32)OCCO4)s1 (stereo not shown),11.7%
7,Cc1ccccc1OCCC(=O)Nc1ccc2c(C)cc(=O)oc2c1,16.7%
8,COc1ccc(/C=N/NC(=O)c2ccc(NS(=O)(=O)c3cccs3)cc2)cc1,8.83%
9,COc1ccc(CN(Cc2ccc(C(=O)O)cc2)C(=S)Nc2ccccc2F)cc1OC,9.57%
10,COc1cc(OC)c(NC(=O)CCNS(=O)(=O)c2cc(Br)cnc2N)cc1Cl,11.5%
11,CC(C)=NNc1nc2c(c(=O)n(C)c(=O)n2C)n1CCc1ccccc1,6.12%
12,Cc1ccc(S(=O)(=O)NC(=O)c2cc(C)n(-c3ccc(N(C)C)cc3)c2C)cc1,-4.43%
13,CCCNC(=O)C(NS(=O)(=O)c1ccc2c(c1)c(=O)n(C)c(=O)n2C)c1ccccc1 (stereo not shown),7.45%
14,Nc1ccc(SCc2nc3cccc4c3n2CCC4)cc1,2.14%
15,O=C(c1cc(-c2ccc(Cl)cc2)on1)N1CCCC1,8.28%
16,Cc1cc(SCc2c(F)cccc2Cl)nc(=O)[nH]1,17.9%
17,CCc1ccc(/C=C2\CN(CC)Cc3c2nc2ccccc2c3C(=O)O)cc1,11%
18,O=C(NCC1CCCCC1)c1cccc(Br)c1,-0.514%
19,COc1ccccc1-c1nc(C#N)c(N2CCC(C(N)=O)CC2)o1,8.21%
20,O=C(NC1CCCc2c1cnn2-c1cc(F)cc(F)c1)c1ccccn1 (stereo not shown),2.28%
21,Cc1csc(NC(=O)CSc2nnc(C)s2)n1,3.04%
22,CN1C(=O)Cc2cc(S(=O)(=O)N3CCN(c4ccc(Cl)cc4)CC3)ccc21,7.62%
23,COc1cc(CNCCc2ccc(S(N)(=O)=O)cc2)ccc1OCC(=O)NC(C)(C)C.Cl,9.9%

row,Structure (SMILES),"hERG current change (%, negative = inhibition) at 1uM"
1,O=C(O)c1ccc(-n2c(=O)c3ccccc3c3ccccc3c2=O)cc1,13.5%
2,CCC(C(=O)NC1CCCC1)N(C(=O)Cn1nnc(-c2ccc(OC)c(OC)c2)n1)c1cccc(O)c1 (stereo not shown),6.72%
3,CCOC(=O)c1cn[nH]c1NC(=S)Nc1ccccc1,8.28%
4,Cc1cccc(N=c2c([N+](=O)[O-])nn(-c3ccc(Cl)cc3)n2O)c1,11.7%
5,COc1cc2[nH]c(C(=O)Nc3ccc4c(c3)OCCO4)cc2c(OC)c1OC,14.6%
6,COc1cccc(NS(=O)(=O)c2csc(C(N)=O)c2)c1,19.7%
7,COC(=O)c1sc(=S)n(-c2ccc(Cl)cc2)c1C,13.7%
8,CCN(CC)CCN1C(=O)C(O)=C(C(=O)c2ccc(C)o2)C1c1ccccn1 (stereo not shown),7.87%
9,O=C(NCc1cccs1)NC1CCCCC1,6.32%
10,CC(C)C(=O)Nc1nnc(CCN2CCOCC2)s1,-0.579%
11,CN1CCN(C(=O)C2=C[C@@H](C3CCCCC3)C[C@@H](OCc3ccc(CO)cc3)O2)CC1,3.86%
12,O=C(CC1Nc2ccccc2NC1=O)NCC1COc2ccccc2O1 (stereo not shown),8.99%
13,COc1ccc(CNc2nc3ccccc3n2C(C)C)c(O)c1,10.3%
14,O=C(NCCc1ccccc1)c1cc(-c2ccc3c(c2)OCO3)on1,4.69%
15,COc1ccccc1C(=O)N1CCc2ccccc21,11.3%
16,Cc1ccc(NC(=O)CN2CCN(CCN=CC3=C(O)CC(c4ccc(C)cc4)CC3=O)CC2)cc1 (stereo not shown),-0.746%
17,Cn1nc2c(c1C(=O)N1CCCC(C(=O)c3cc(F)ccc3F)C1)CCCC2 (stereo not shown),10.8%
18,O=C(Nc1ccc(Nc2ccccc2)cc1)c1ccccc1,3.32%
19,O=C(Nc1ccc(Br)cc1F)C1CC(=O)N(C2CCCCC2)C1 (stereo not shown),18.3%
20,CCOc1c(OC)cccc1C(=O)NCC1(c2ccccc2)CCCC1,12.2%
21,CC1(C)C(=S)N(Cc2ccccc2)c2ccccc21,15.8%
22,CCCCN(CCCC)C(=S)NC(=O)C(C)(C)C,2.97%
23,CCN(CC)C(=O)C(C)OC(=O)COc1ccc(Cl)cc1Cl (stereo not shown),7.44%

row,Structure (SMILES),"hERG current change (%, negative = inhibition) at 1uM"
1,CCCCCCCCCCCCCCCC[n+]1ccc(/C=N/O)cc1.[Br-],12.2%
2,Cc1nnsc1C(=O)NNS(=O)(=O)c1cc(C(F)(F)F)cc(C(F)(F)F)c1,10.7%
3,CC(C)C(NC(=O)c1ccco1)C(=O)NCC(c1ccco1)N1CCCCC1 (stereo not shown),20.8%
4,CC(=O)C1=C(NC(=O)c2ccccc2F)C[C@@H]2[C@H]1C2(C)C,14%
5,O=C(O)C(=O)O.O=S(=O)(c1ccc(Cl)cc1)N1CCC(N2CCOCC2)CC1,2.41%
6,CCOc1ccc(-c2nnn(CC(=O)NCc3ccc(OC)cc3)n2)cc1OCC,5.14%
7,O=C(CSc1nnc(COc2ccc(Cl)cc2)o1)N1c2ccccc2CCc2ccccc21,5.41%
8,CN1C(=O)OC(C)(C)C1=O,4.75%
9,COCC(C)N1CCC(n2nccc2NC(=O)c2ccccc2Cl)CC1 (stereo not shown),-1.49%
10,CC(=O)c1ccc(N2CCN(C(=O)Nc3ccc(F)cc3F)CC2)cc1,9.27%
11,CC(C(=O)Nc1cccnc1)C1Sc2ccccc2NC1=O (stereo not shown),15.3%
12,CC(=O)NCCSc1ccc(S(=O)(=O)N2CCCC2)cn1,13%
13,COc1ccccc1CN(C)C(=O)c1cc(-c2cccs2)nc2ccccc12,12.2%
14,CCCc1nc2c(s1)CCc1onc(-c3ccc(Br)cc3)c1-2,12%
15,Cc1ccc(S(=O)(=O)N2CCCCCC2)cc1C(=O)Nc1cccnc1,-2.23%
16,Cc1cc(=O)oc2c(CN3CCN(C)CC3)c(O)c(Cl)cc12,-1.87%
17,COc1ccnc(Oc2ccc(F)cc2)c1C#N,12.7%
18,CCNC(=S)N1C2CCC1CC(NC(=O)Nc1ccc(C(=O)OCC)cc1)C2 (stereo not shown),13.6%
19,Cc1cccc(C(=O)N/N=C2/SCC(=O)N2Cc2ccccc2)c1,7.17%
20,CCOC(=O)c1c(S(=O)(=O)NCC(=O)Nc2cccc(C)c2C)c(C)n(C)c1C,18.6%
21,O=C(COc1ccc(Br)cc1)NCCCNC(=O)c1ccncc1,-15.1%
22,CCN(CCCNC(=O)c1ccc2c(c1)NC(=O)CN2C)c1cccc(C)c1,9.25%
